Data published in PubChem BioAssay AID463173 (ICCB-Longwood Screening Facility, Harvard Medical School, 2010).
Hit rate of the full screen: of about 52,000 compounds, about 1,700 (3.3%) were called active. Cut-off read from the data, not from the text of the source: active = survival mostly below about 52% (no sharp cut-off); inactive = mostly above about 56%. The list shows a part of the results.

These compounds were tested on Wild type (assay: growth inhibition of S. aureus wild type versus tarO mutant, primary screen, teichoic acid synthesis inhibitors, RN4220, OD600 (AID 463173)). Settings: S. aureus RN4220 wild type/DeltatarO growth, OD600, 18 h, active compounds read low, screened at 18.75 µg/mL (by protocol).
`COc1ccc(NCc2cccn2-c2nnc(N3CCCCCC3)s2)cc1` was tested, and the survival was inactive: 78%.
In the case of `COc1ccc(NC(=O)CSC2=Nc3ccccc3C3=NC(CC(=O)NCCc4ccccc4)C(=O)N23)cc1` (centres undefined), the survival is reported as inactive: 64%.
`O=C(NCc1ccco1)c1ccc(Cn2c(SCc3ccccc3)nc3cccnc32)cc1` was tested, and the survival was inactive: 73%.
`COc1cc(OC)c(NC(=O)CCS(=O)(=O)c2ccc3c(c2)oc(=O)n3C)cc1Cl` was tested, and the survival was inactive: 83%.
For `Cc1ccc(S(=O)(=O)c2cn(Cc3ccccc3)c3cc(N4CCCCC4)c(F)cc3c2=O)cc1`, the survival was inactive: 65%.
For `CC(C)CCOc1ccc(Cn2c(=O)oc3ccccc32)cc1`, the survival was inactive: 121%.
`COc1ccc(-c2noc(-c3ccc(N4CCOCC4)c([N+](=O)[O-])c3)n2)cc1` was tested, and the survival was inactive: 83%.
In the case of `CCc1ccc(CNC(=O)C2COc3ccc(OC)cc3C2)cc1` (centres undefined), the survival is reported as inactive: 93%.
With `CN(Cc1ccccc1)C(=O)CSc1nnc(-c2cccc(Cl)c2)o1` the survival was inactive: 94%.
With `CCOC(=O)c1c(C)sc(-c2c(-c3ccccc3)[nH]c3[nH]c(=O)[nH]c(=O)c23)c1O` the survival was inactive: 104%.
`CCC(=O)n1nc(-c2ccccc2)nc1N` was tested, and the survival was inactive: 113%.
With `CC1=C(C(=O)Nc2ccccc2C)C(c2cccs2)n2nc(SCc3ccccc3)nc2N1` (centres undefined) the survival was inactive: 99%.
For `CCc1ccc(S(=O)(=O)NCc2ccc3c(c2)CCN3C(=O)c2ccc(C)cc2)cc1`, the survival was inactive: 78%.
For `CC(C(=O)NCC1(c2ccccc2)CCOCC1)N1CCCCC1` (centres undefined), the survival was inactive: 103%.
`CCc1ccc(-n2nc(CO)c(C(=O)NCCOC)n2)cc1` was tested, and the survival was inactive: 84%.
In the case of `O=C(Cn1ncc2c(Cl)cccc21)NCc1cccc(Cl)c1`, the survival is reported as inactive: 116%.
With `CC(C)(C)C(=O)Nc1ccccc1C(=O)Nc1nccs1` the survival was inactive: 100%.
In the case of `CN(C(=O)CC(=O)Nc1ccc2nc3n(c(=O)c2c1)CCCCC3)c1ccccc1F`, the survival is reported as inactive: 90%.
In the case of `Cc1scc(CN2CCN(c3ccccc3F)CC2)c1C`, the survival is reported as inactive: 92%.
With `COc1ccc(OC)c(S(=O)(=O)N2CCC(n3c(C)nc4cccnc43)CC2)c1` the survival was inactive: 45%.
With `CCOc1ccc(NC(=O)Cn2c(=O)n(Cc3ccc4c(c3)OCO4)c(=O)c3ccc(C(=O)NC4CCCCC4)cc32)cc1` the survival was inactive: 90%.
For `Cc1ccc(CNS(=O)(=O)c2ccc(C(=O)N(C)C)s2)cc1`, the survival was active: -6%.
In the case of `Cc1ccc(CN(C(=O)COc2ccccc2Cl)c2ccccn2)o1`, the survival is reported as inactive: 90%.
With `COc1ccc(Nc2c3c(nc4ccccc24)CCC3)cc1Cl` the survival was inactive: 72%.
For `Cc1cccc(NC(=O)Cn2c(=O)n(Cc3ccc4c(c3)OCO4)c(=O)c3oc4ccccc4c32)c1C`, the survival was inactive: 88%.
With `Fc1ccc(CNc2ccc(N3CCCC3)cc2)cc1` the survival was inactive: 103%.
In the case of `COc1ccc(OC)c(CNC(=O)Nc2cn(CC(C)C)c(=O)c3ccccc23)c1`, the survival is reported as inactive: 66%.
With `CCC(=O)N1c2ccc(S(=O)(=O)CCC(=O)NCc3ccccc3OC)cc2CC1C` (centres undefined) the survival was inactive: 87%.
`CC(C)(C)C1CCc2c(sc(NC(=O)C3c4ccccc4Oc4ccccc43)c2C(N)=O)C1` (centres undefined) was tested, and the survival was inactive: 91%.
`CCn1cc(S(=O)(=O)c2cc(C)cc(C)c2)c(=O)c2cc(F)c(N3CCCCC3)cc21` was tested, and the survival was inactive: 82%.
`CC1CCCCN1Cc1c(O)ccc2c(=O)c(-c3ccccc3Cl)c(C(F)(F)F)oc12` (centres undefined) was tested, and the survival was inactive: 75%.
In the case of `CCCCn1c(CNC(=O)C23CC4CC(CC(C4)C2)C3)nnc1SCC(=O)Nc1ccc(C)cc1`, the survival is reported as inactive: 42%.
With `COCCSc1nc2c([nH]c3ccccc32)c(=O)n1-c1ccc(OC)c(OC)c1` the survival was inactive: 128%.
For `Cc1ccc(CNC(=O)Nc2cc(C(=O)NCc3cccc(F)c3)ccc2N2CCCC2)cc1`, the survival was inactive: 128%.
For `COC(=O)c1nnn(CC(=O)NC(=O)Nc2ccc(F)cc2)c1C(=O)OC`, the survival was inactive: 70%.
In the case of `CC(=O)N1CCc2cc(Br)cc(S(=O)(=O)N3CCC(C(=O)Nc4cccc(C)c4C)CC3)c21`, the survival is reported as inactive: 98%.
In the case of `O=C(Nc1ccc(S(=O)(=O)N2CCC(c3nc4ccccc4s3)CC2)cc1)c1ccccc1`, the survival is reported as inactive: 118%.
`O=C(CSc1ccccn1)Nc1cccc(F)c1` was tested, and the survival was inactive: 118%.
In the case of `COc1ccccc1NC(=O)Cn1c(CN2CCCCC2)nc2ccccc2c1=O`, the survival is reported as inactive: 110%.
With `CCC(C(=O)OC)n1c(-c2ccccc2)nc2ccccc2c1=O` (centres undefined) the survival was inactive: 98%.
With `Cc1ccc(NC(=O)CNCCCN2CCOCC2)cc1Br` the survival was inactive: 104%.
For `Cc1ccc(C2CC(=O)Nc3cc4c(cc32)OCCO4)cc1Br` (centres undefined), the survival was inactive: 86%.
`CCc1ccc(-c2nnn(CC#N)n2)cc1` was tested, and the survival was inactive: 99%.
`Fc1ccccc1-c1nc(N2CCN(c3cccc(Cl)c3)CC2)c2ccccc2n1` was tested, and the survival was inactive: 58%.
In the case of `CCOc1ccc(CCNC(=O)c2cc(=O)[nH]c3ccc(S(=O)(=O)N4CCCCC4C)cc23)cc1OCC` (centres undefined), the survival is reported as inactive: 75%.
For `CCC(Sc1nc(N)cc(=O)[nH]1)C(=O)NC(C)c1ccccc1` (centres undefined), the survival was inactive: 103%.
`Cc1ccc(-c2noc(CCC(=O)N(C)c3ccccc3F)n2)cc1` was tested, and the survival was active: 4%.
`COCCNC(=O)Cn1ccc2cc(S(=O)(=O)N3CCCCCC3)ccc21` was tested, and the survival was inactive: 80%.
With `CC(C)c1ccccc1C=NCC(=O)O` the survival was inactive: 103%.
`COc1ccc(CNC(=O)CCc2c(C)nc3c(c(C)nn3-c3ccccc3)c2C)cc1` was tested, and the survival was inactive: 103%.
With `CCOC(=O)c1c(C)n(-c2ccc(OC)cc2)c2ccc(OC(=O)COc3ccccc3)cc12` the survival was inactive: 76%.
In the case of `O=C(Cn1nnnc1-c1ccccc1F)Nc1ccc(OC(F)(F)F)cc1`, the survival is reported as inactive: 88%.
With `Cc1ccc(-n2ncc3c(Nc4cccc(Cl)c4)ncnc32)c(C)c1` the survival was inactive: 82%.
In the case of `CCN(CC)c1cc(C)c2cc(NC(=O)/C=C/c3cc(OC)c(OC)c(OC)c3)ccc2n1`, the survival is reported as inactive: 96%.
In the case of `CC(C)c1nnc(N2C(=O)c3oc4ccccc4c(=O)c3C2c2ccccc2F)s1` (centres undefined), the survival is reported as inactive: 75%.
For `COc1cc(NC(=O)C2=CC(c3ccc(F)cc3)=NS(=O)(=O)N2C)cc(OC)c1OC`, the survival was inactive: 82%.
With `CCc1ccc(CNC(=O)CCc2c(C)nn(-c3ccc(N4CCCC4)nn3)c2C)cc1` the survival was inactive: 68%.
With `O=C(CSc1nccn1Cc1ccc(F)cc1)Nc1nc2ccccc2s1` the survival was inactive: 82%.
For `CCN(Cc1ccccc1)C(=O)C1CCN(S(=O)(=O)c2ccc3c(c2)CCCN3C(C)=O)CC1`, the survival was inactive: 69%.
With `O=C(Cn1ncc2c3ccccc3n(Cc3ccccc3F)c2c1=O)NCc1ccccc1Cl` the survival was inactive: 94%.
In the case of `Cc1cc2c(cc1S(=O)(=O)Nc1cccc(C#N)c1)OCC(=O)N2`, the survival is reported as inactive: 74%.
In the case of `CNC(=O)CC(=O)NC`, the survival is reported as inactive: 116%.
With `Cc1cccc(CC(=O)N2CC(=O)Nc3ccc(Br)cc3C2c2ccc(F)cc2)c1` (centres undefined) the survival was inactive: 62%.
In the case of `CCc1cccc(-n2nnc(-c3nsc(NC(=O)c4cccc(OC)c4)n3)c2C)c1`, the survival is reported as inactive: 69%.
In the case of `COc1ccc(CNC(=O)CN(C)S(=O)(=O)c2ccc3nc(C)sc3c2)cc1`, the survival is reported as inactive: 85%.
In the case of `COc1cccc(C(=O)Nc2ccccc2C(=O)OCc2cc(=O)n3c4c(sc3n2)CCCC4)c1`, the survival is reported as inactive: 65%.
With `O=C(c1cccnc1)N1CCN(CCN2C(=O)C3C4C=CC(C4)C3C2=O)CC1` (centres undefined) the survival was inactive: 108%.
In the case of `CC(C)N(C(=O)CSc1cn(CC(=O)N2CCCCCC2)c2ccccc12)C(C)C`, the survival is reported as inactive: 88%.
With `Cc1coc2c(C)c3oc(=O)c(CCC(=O)NCCc4ccccc4F)c(C)c3cc12` the survival was inactive: 81%.
`CCOC(=O)c1ccc(NC(=O)Cn2c(=O)cc(C)c3c(C)nn(-c4ccc(CC)cc4)c32)cc1` was tested, and the survival was inactive: 70%.
With `N#Cc1ccc(-c2cccs2)nc1SCc1ccc(Br)cc1` the survival was inactive: 67%.
For `Nc1nc2ccccc2n1C(=O)Cc1ccccc1`, the survival was inactive: 111%.
`COc1ccc(-n2nc(C(=O)N3CCCCC3C)c3c4ccccc4n(C)c3c2=O)cc1Cl` (centres undefined) was tested, and the survival was inactive: 82%.
`COc1ccc(Br)cc1S(=O)(=O)Nc1cc(-c2cn3ccccc3n2)ccc1C` was tested, and the survival was inactive: 63%.
For `CCOc1ccc(CCNC(=O)c2cn(-c3ccc(OC)cc3)c(=O)c3ccccc23)cc1OCC`, the survival was inactive: 119%.
`Cc1ccc(C2C=C(c3ccccc3)Nc3nc(NS(=O)(=O)c4ccccc4)nn32)cc1` (centres undefined) was tested, and the survival was inactive: 83%.
`COc1cccc(/C=C/c2nc(C#N)c(N3CCC(C(N)=O)CC3)o2)c1` was tested, and the survival was inactive: 84%.
With `COc1ccccc1Nc1sc(C(=O)c2ccc(F)cc2)c(N)c1S(=O)(=O)c1ccc(C)cc1` the survival was inactive: 66%.
For `COc1ccc(NC(=O)Cn2c(=O)n(CCC(=O)NCC3CCCO3)c(=O)c3cc(OC)c(OC)cc32)cc1` (centres undefined), the survival was inactive: 84%.
For `CN(Cc1ccccc1)C(=O)c1ccc(CSc2nc3cccnc3n2Cc2ccccc2F)cc1`, the survival was inactive: 79%.
In the case of `CCc1ccc(-n2nc(C)c3c(C(=O)N4CCN(c5ccccc5)CC4)cc(C)nc32)cc1`, the survival is reported as inactive: 87%.
For `COc1ccc(-c2noc(-c3ccc(N4CCCC4)c([N+](=O)[O-])c3)n2)cc1OC`, the survival was inactive: 81%.
`CCOc1cc(C2NC(=O)c3c(sc4c3CCN(C)C4)N2)ccc1OC(=O)c1ccc(Br)cc1` (centres undefined) was tested, and the survival was inactive: 71%.
For `CCOc1ccc(CNC(=O)C2CCCN(c3nnc(C)c4c(C)n(-c5ccccc5)nc34)C2)cc1` (centres undefined), the survival was inactive: 59%.
With `CC1C(C(=O)Nc2ccccc2)CCCC1(C)C(=O)O` (centres undefined) the survival was inactive: 116%.
For `CNC(=O)CSc1nnc(-c2ccco2)n1CC1CCCO1` (centres undefined), the survival was inactive: 100%.
In the case of `CCOc1ccc(NC(=O)Cn2cnc3sc(C)c(S(=O)(=O)N4CCN(c5ccccc5OC)CC4)c3c2=O)cc1`, the survival is reported as inactive: 80%.
For `COc1ccc(NC(=O)c2ccco2)cc1NC(=O)C(C)(C)Oc1ccc(Cl)cc1`, the survival was inactive: 28%.
`O=C1CC2CCCC(CN1)N2CC(=O)NCc1ccco1` (centres undefined) was tested, and the survival was inactive: 104%.
